This is an account of results in the BET-seq Pho4 binding data (Le et al. 2018).

Some of the results follow. These are noisy estimates, calculated here from bound and input reads.

The test addresses T1, Pho4 (S. cerevisiae) (UniProt P07270).
T1 sequence: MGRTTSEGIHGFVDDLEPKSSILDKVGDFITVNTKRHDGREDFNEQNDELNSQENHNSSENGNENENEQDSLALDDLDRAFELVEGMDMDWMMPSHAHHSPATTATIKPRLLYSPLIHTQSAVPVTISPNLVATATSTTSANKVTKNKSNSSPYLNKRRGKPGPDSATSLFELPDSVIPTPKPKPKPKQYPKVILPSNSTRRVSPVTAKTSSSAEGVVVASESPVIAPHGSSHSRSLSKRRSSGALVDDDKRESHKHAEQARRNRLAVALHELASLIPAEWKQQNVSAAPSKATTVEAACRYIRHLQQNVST
The test can be described thus: relative binding free energy (BET-seq); higher = weaker binding. The conditions noted are these: reference: library average.
In the case of GTATGCACGTGCGTTG, the “relative binding free energy” value is -0.04 kcal/mol. As to CAATTCACGTGGTTTG, the “relative binding free energy” value turned out to be 0.18 kcal/mol. To TTACGCACGTGGATGT belongs -0.05 kcal/mol. The result for TTAGTCACGTGAAGCA reads 0.39 kcal/mol; that for TGAGCCACGTGGGGTG, -0.27 kcal/mol; that for GGCAACACGTGGATGT, 0.12 kcal/mol.

With ATTGGCACGTGAATTG, the “relative binding free energy” value came out at 0.21 kcal/mol.

For TGGTACACGTGTAGTC, the “relative binding free energy” value came out at 0.07 kcal/mol. To TATAGCACGTGTCTGG belongs -0.1 kcal/mol; to GGTGCCACGTGACGGG, -0.06 kcal/mol; to GGAGTCACGTGATGGA, 0.29 kcal/mol. To TTGGGCACGTGAAAAG belongs 0.16 kcal/mol; to ACTGTCACGTGGGTAG, -0.02 kcal/mol. To ATTGGCACGTGGAGCA belongs -0.08 kcal/mol; to TCTTGCACGTGGGCTT, -0.19 kcal/mol. Turning to CAAATCACGTGGTGGC, the “relative binding free energy” value stood at 0.36 kcal/mol. Take TGCTGCACGTGTGAGG: the “relative binding free energy” value is 0.05 kcal/mol. For GTTGACACGTGGTACT, the “relative binding free energy” value was -0.07 kcal/mol. To ATAGACACGTGGGTAG belongs -0.12 kcal/mol; to GGTTCCACGTGATGGA, 0.25 kcal/mol. To TTGCGCACGTGAGTAG belongs 0.15 kcal/mol; to AAGAACACGTGGGTGA, -0.02 kcal/mol. To GGTAGCACGTGCTGGC belongs -0.07 kcal/mol; to CGGCACACGTGGTTTT, 0.12 kcal/mol; to TGGAACACGTGTCGGT, 0.21 kcal/mol.

Turning to TGACTCACGTGTTTTT, the “relative binding free energy” value is 0.18 kcal/mol. Consider GTACTCACGTGTGCGG, for which the “relative binding free energy” value amounted to 0.26 kcal/mol. To TTGGGCACGTGGGAGC belongs -0.22 kcal/mol; to ATTAGCACGTGGGCAT, -0.26 kcal/mol; to CGTGGCACGTGTTATT, -0.01 kcal/mol.

For the sequence GGGCGCACGTGAGAGC, the “relative binding free energy” value came to 0.24 kcal/mol. To GATAACACGTGTGTTA belongs -0.04 kcal/mol. The result for GTTTGCACGTGTGATA reads 0.22 kcal/mol; that for TAGGGCACGTGAGGGC, 0.17 kcal/mol; that for GATTGCACGTGGGGGA, -0.01 kcal/mol. To AGGGACACGTGTACGG belongs 0.19 kcal/mol; to CTGGTCACGTGGAATT, 0.14 kcal/mol. Consider GCGGACACGTGAGTGG, for which the “relative binding free energy” value amounted to 0.19 kcal/mol. For TGAATCACGTGTTGTG, the “relative binding free energy” value turned out to be 0.05 kcal/mol. To TGGTACACGTGTTTTC belongs 0.01 kcal/mol; to TTGTTCACGTGAACTG, 0.34 kcal/mol; to CGTGTCACGTGTATTG, 0.15 kcal/mol. AATGGCACGTGTTTAG: the “relative binding free energy” value was -0.19 kcal/mol. To AGAGTCACGTGTGTCA belongs 0.23 kcal/mol; to TCTTACACGTGAGGAA, 0.71 kcal/mol; to TAGGCCACGTGGTGTC, -0.13 kcal/mol. For CTTGGCACGTGGGGTA, the “relative binding free energy” value was -0.23 kcal/mol. Consider TGTTTCACGTGCCTGT, for which the “relative binding free energy” value is 0.2 kcal/mol. To CGTGTCACGTGATAAT belongs 0.27 kcal/mol; to AATGACACGTGTTAGG, 0.02 kcal/mol. Take AGGATCACGTGGGGGT: the “relative binding free energy” value is -0.01 kcal/mol.

Regarding TTCGTCACGTGGCTAG, the “relative binding free energy” value is 0.07 kcal/mol.

As for TTTAGCACGTGGATGA, the “relative binding free energy” value worked out at 0.07 kcal/mol. On to TTGCGCACGTGTGATG, for which the “relative binding free energy” value came out at 0.07 kcal/mol.

Turning to TTGGTCACGTGGCTGG, the “relative binding free energy” value was 0.1 kcal/mol. To CGGGGCACGTGTTTTT belongs 0.02 kcal/mol. With CGTTTCACGTGAATAT, the “relative binding free energy” value was determined as 0.28 kcal/mol.

As to ACAGGCACGTGGTGAT, the “relative binding free energy” value was -0.2 kcal/mol.

As to ATGGTCACGTGGGAGC, the “relative binding free energy” value was -0.07 kcal/mol. The result for TGACTCACGTGGGGTA reads 0.18 kcal/mol; that for TAAGGCACGTGGAAGG, -0.08 kcal/mol; that for TTAGTCACGTGCGTGT, 0.03 kcal/mol.

For GGCCGCACGTGTGGGT, the “relative binding free energy” value is 0 kcal/mol. The result for GATAACACGTGAGTAT reads 0.5 kcal/mol. The result for ATAATCACGTGTGTGG reads 0.2 kcal/mol.

Turning to GCTGTCACGTGAATGG, the “relative binding free energy” value was 0.34 kcal/mol. To TGGTACACGTGGTTCA belongs 0.04 kcal/mol; to GGGTGCACGTGCGTGC, -0.17 kcal/mol; to GGGTTCACGTGGTATG, 0.31 kcal/mol.

Take CGGGGCACGTGTGGGC: the “relative binding free energy” value was -0.09 kcal/mol. Turning to TTATGCACGTGGTGGC, the “relative binding free energy” value is -0.09 kcal/mol. To GGCGTCACGTGGACGT belongs 0.18 kcal/mol. For the sequence TCGCGCACGTGTGAGT, the “relative binding free energy” value came out at 0.06 kcal/mol.

Consider CATGGCACGTGGCTGT, for which the “relative binding free energy” value was -0.24 kcal/mol. The result for ATAGTCACGTGTGTAG reads 0.06 kcal/mol.

For GTAGGCACGTGGTATA, the “relative binding free energy” value was -0.06 kcal/mol. The result for AATTGCACGTGTTTAG reads -0.02 kcal/mol; that for GACATCACGTGCGGGG, 0.31 kcal/mol. The result for TTATCCACGTGTTGAG reads 0.09 kcal/mol; that for TGTTTCACGTGAGTTA, 0.37 kcal/mol; that for TTTTACACGTGAGCTT, 0.24 kcal/mol. In the case of ATAGTCACGTGGAGGT, the “relative binding free energy” value was determined as 0.09 kcal/mol. To CTATTCACGTGGGGGG belongs -0.01 kcal/mol; to AGATCCACGTGGGTGG, -0.08 kcal/mol.

As for GAGCGCACGTGTATGT, the “relative binding free energy” value came out at 0 kcal/mol. To AAAATCACGTGTTAGG belongs 0.14 kcal/mol; to TATTGCACGTGATAGG, -0.06 kcal/mol. To ATGGTCACGTGTAGTG belongs 0.15 kcal/mol; to CGGTCCACGTGGGTAG, -0.13 kcal/mol; to CTGGCCACGTGGGGGT, -0.37 kcal/mol. The result for GGGATCACGTGGTTAC reads 0.27 kcal/mol. Regarding GTTCGCACGTGAGAGG, the “relative binding free energy” value is 0.16 kcal/mol. The result for TTAATCACGTGGTTGC reads 0.15 kcal/mol; that for AGAGACACGTGGGGCG, -0.07 kcal/mol; that for TTTAGCACGTGGTTGA, -0.13 kcal/mol.

In the case of CTAGTCACGTGTGGCG, the “relative binding free energy” value amounted to 0.12 kcal/mol.

With TAGCGCACGTGATGGG, the “relative binding free energy” value turned out to be 0.06 kcal/mol. As for GCTGGCACGTGCTTGG, the “relative binding free energy” value is -0.24 kcal/mol. The result for AGGGGCACGTGGACCG reads -0.25 kcal/mol; that for TGGGACACGTGGCCGG, -0.11 kcal/mol; that for CATTGCACGTGAGGTG, 0.23 kcal/mol. The result for GATATCACGTGGTCTT reads 0.13 kcal/mol; that for TGTACCACGTGTTGTG, -0.11 kcal/mol; that for GAGATCACGTGGAGTG, 0.19 kcal/mol.

TAGCTCACGTGTAGTT: the “relative binding free energy” value amounted to 0.21 kcal/mol. To TTATACACGTGTAGGA belongs 0.02 kcal/mol; to GAGGGCACGTGAGTAG, 0.19 kcal/mol. As to TGCGTCACGTGTGGTA, the “relative binding free energy” value stood at 0.11 kcal/mol.

For the sequence GGCTTCACGTGGGTGA, the “relative binding free energy” value amounted to 0.14 kcal/mol. The result for TCTGGCACGTGGGGCG reads -0.2 kcal/mol; that for TTGCTCACGTGTAAGT, 0.3 kcal/mol.

As for TGTGGCACGTGTGGGT, the “relative binding free energy” value is -0.01 kcal/mol. As to TAGTGCACGTGAGTCG, the “relative binding free energy” value was determined as 0.24 kcal/mol. The result for TGATGCACGTGAGTCA reads 0.17 kcal/mol. With GTAATCACGTGTGATT, the “relative binding free energy” value was 0.12 kcal/mol.
